# Hit rate of the full screen: of about 150,000 compounds, about 540 (0.36%) showed an effect of 50% or more. This is one part of the list.
# System: Plasmodium falciparum
# Test: Primary screen in NF54 nanoGlo assay, in single point, at 2uM, 72h; a lower Z score goes with more inhibition
# Format: functional, Erythrocyte
# Conditions: timepoint 72 hour
Structure (SMILES),% Inhibition [%],Z score
COCC(=O)NC1(CO)CCN(C(=O)OC(C)(C)C)CC1,20,-2.49
Cc1csc([C@@H](C)CNC(=O)CCc2cnccn2)n1,7,-0.95
Cc1nc(-c2csc(S(=O)(=O)N3CCC[C@H](C(=O)NCc4ccccc4C)C3)c2)no1,-12,1.32
O=C(NCCc1cn2c(n1)CCCC2)C1CCCCC1,-1,0.2
COc1cccc(-c2ccc(CN3CCN(C)CC3)cn2)c1F,-21,2.3
Cc1noc(C)c1S(=O)(=O)N1CCOC[C@H](Oc2ccc(C(F)(F)F)cn2)C1,-7,1.13
CC(C)c1cc(C(=O)N2CC[C@@H](CO)[C@@H](O)C2)cs1,6,-0.72
Cc1nc(-c2c(C)c(C)nn(C)c2=O)sc1C(=O)NC[C@H](C)N1CCc2ccccc21,31,-3.46
O=S1(=O)C[C@@H]2[C@H](C1)N(S(=O)(=O)Cc1ccccc1)CCN2CC1CC1,-8,1.45
CCn1cc([C@H](CC(=O)NCc2ccco2)c2ccc(Cl)cc2)c2ccccc21,-3,0.35
C=CCN(CC=C)S(=O)(=O)c1ccc(Cl)cc1,34,-3.89
CN(Cc1ccc(Cl)s1)C(=O)CN1CCOCC1,2,-0.21
COC(=O)NCC(=O)N1CC[C@H]2[C@H](CCC(=O)N2CCc2ccccc2)C1,5,-1.02
O=C(CCc1c[nH]cn1)NC[C@@H]1C[C@H]1C1CCCCC1,6,-0.82
COCCOCCN1CCCN(C)c2ccccc21,-12,1.91
Cc1nn(-c2nc(-c3ccc(F)cc3)cs2)c(C)c1CC(=O)Nc1ccc(Cl)cc1,-7,0.77
OCC1(CCCc2ccccc2)CCN(Cc2cccn2-c2nccs2)CC1,-7,1.05
CC[C@H](C)N(Cc1c(-c2ccccc2)noc1N1CCC(C)CC1)C(=O)c1cccc(Br)c1,-10,0.95
Cc1ccc([C@H](CCn2cncn2)NCCCn2ccnc2)cc1,12,-1.64
CCc1ccc(CNC(=O)c2ncn(C(C)(C)C)n2)s1,-1,0.14
COCCN1C(=O)CC[C@@H](C(=O)NCCc2c(C)nn(C)c2C)[C@H]1c1ccc(C)cc1,-14,1.78

Structure (SMILES),% Inhibition [%],Z score
CCc1noc(C)c1C(=O)Nc1cc(-c2ccc(=O)[nH]n2)ccc1C,1,-0.18
OCCc1cnn(Cc2nnc(-c3cccs3)o2)c1,-11,1.54
CN(C)CCNC(=O)Nc1cc(Br)c(F)cc1F,-5,0.9
COc1ccc(-c2noc(CN3CCC(C(=O)N4CCOCC4)CC3)n2)cc1OC,-1,0.24
COc1cc(NC(=O)CC(F)(F)F)cc(OC)c1Br,-3,0.38
CCc1cc(N2CCc3[nH]nc(C(=O)OC)c3C2)ncn1,1,-0.07
C#CCN(C(=O)[C@H]1CC(=O)N(c2ccc(F)c(F)c2)C1)C1CC1,6,-0.8
CN1C(=O)c2cc(C(F)(F)F)ccc2O[C@H]2CN(Cc3cc(-c4ccccc4)no3)C[C@H]21,-8,1.31
CCN(CC)CC#C[C@H](C)OC(=O)c1sc(-c2nnc[nH]2)nc1C,4,-0.71
O=C(NCCc1nccs1)c1ccc2nc(-c3ccccc3)cn2c1,-5,0.71
O=C(Nc1ccc(-c2ccon2)cc1)N1CCC[C@@H]2COC[C@@H]21,-4,0.63
Cc1nccn1CCN(C)C(=O)c1cc(COc2ccc3c(c2)OCO3)[nH]n1,-7,1.39
CC(C)c1ccc(-c2nc(CN3CCCCC3)cc(CN3CCCCC3)c2O)cc1,96,-15.06
N#Cc1ccc(COc2ccc3c(c2)CCC3)cc1,-8,1.1
CC(C)Oc1ccc(C(=O)N[C@H]2CCS(=O)(=O)C(C)(C)C2)cc1,9,-0.87
O=C1NC[C@@]2(CCCN(C(=O)c3ccc(-c4ccco4)cc3)C2)O1,-13,2.29
O=C(CCn1cccn1)N1C[C@H]2CC[C@@H](C1)N(Cc1ccccn1)C2=O,-6,0.54
O=C(C1C2CCCC21)N1CCCC(CO)C1 (stereo unspecified),-4,0.46
CC#CC(=O)N[C@H]1CCCc2sc(-c3ccc(F)cc3)nc21,-33,4.65
NC(=O)CO[C@H]1COCC[C@@H]1NC(=O)c1cccc(Cl)c1Cl,-8,1.02
Cc1nc(-c2ccc(Cl)c(S(=O)(=O)N3CCC(C(=O)N4CCCCCC4)CC3)c2)no1,2,-0.29

Structure (SMILES),% Inhibition [%],Z score
CC(=O)Nc1c2n(c3ccccc13)C[C@@](C)(C(=O)NC1CCCC1)N(C1CCCCC1)C2=O,-20,1.89
COc1ccc(CNCc2ccc(C)cc2)cc1Cn1ccnc1,44,-7.64
c1coc(C2=Nc3ccccc3NCC2)c1,1,-0.22
CC(C)(C)c1nccn1CCCn1ccnc1,-1,0.16
O=C(c1coc(COc2cccc(F)c2)n1)N1CCN(c2ccccn2)CC1,-6,0.94
COc1cccc(F)c1NC(=O)N1CCC(Cn2ccnn2)CC1,-8,1.49
Cc1cc(-c2ccc(S(=O)(=O)Nc3cccc(Cl)c3)o2)on1,2,-0.31
CS(=O)(=O)N1CC(C(=O)N2C3CCC2CC(CC(F)F)C3)C1 (stereo unspecified),-9,1.09
CC[C@@H](C(=O)NC1(c2cc(F)cc(F)c2)CC1)N1CCOCC1,-8,1.17
Cc1nc(C)c(NS(=O)(=O)c2ccc3c(c2)CCCC3)s1,-8,0.94
O=S1(=O)CC[C@H](NS(=O)(=O)c2cccc(C(F)(F)F)c2)c2cc(Cl)ccc21,-4,0.52
c1cc(OCc2ccc3c(c2)OCCO3)ccc1CNC[C@H]1CCCO1,-8,0.71
CC[C@H](NC(=O)C(C)C)C1=CCCN(Cc2ncccn2)C1,-12,2.11
NC(=O)c1c(NC(=O)CNC2CCCC2)sc2c1CCCC2,-13,1.13
COc1ccc(C)cc1S(=O)(=O)Nc1ccn2nccc2c1,-7,1.08
COc1cccc(C(=O)N2CCCN(c3nc4c(s3)c(C)nn4-c3ccc(C)cc3)CC2)c1OC,6,-1.01
COc1ccc(OCc2cc(C(=O)NCc3n[nH]c(C)n3)n[nH]2)c(Cl)c1,-4,0.87
O=C(c1ccc[n+]([O-])c1)N1CCC[C@H](Cc2nc(C3CC3)no2)C1,-9,1.59
COCCNC(=O)Cc1cccc(N(Cc2ccc(C)cc2)C(=O)C2CCCC2)c1,-9,0.87
O=C(CCc1c[nH]c2ccccc12)OCc1nnsc1Cl,-15,2.84
CC(C)CN(Cc1cccc(OS(=O)(=O)c2cccc(C(F)(F)F)c2)c1)C(=O)Nc1ccc(F)cc1F,-26,4.06

Structure (SMILES),% Inhibition [%],Z score
Cc1nnc(NCCc2csc(-c3ccccc3)n2)[nH]c1=O,-15,2.06
CC(C)c1nc([C@H]2CC[C@@H](O)CC2)n(-c2cccc3cccnc23)n1,-4,0.49
CC(C)(NC(=O)Nc1ccccc1F)c1c[nH]nn1,-11,1.5
O=C(O)[C@H]1CCCN1C(=O)CCc1ccncc1,11,-1.32
COc1ccc2[nH]c3c(c2c1)CCN(C)C31CCN(C(=O)c2cnccc2C)CC1,-2,0.38
Cc1nn(C)cc1[C@H](C)NC(=O)c1ccn(CCc2ccccc2)n1,1,-0.13
Cc1c(CN[C@H]2CCCCNC2=O)cc(C#N)n1C,-8,1.12
CC[C@H](C)C(=O)NS(=O)(=O)N1CCN(Cc2ccccc2)CC1,3,-0.34
Cc1cccc(-c2ncc(C(=O)N3CCC(C)CC3)c(N(C)C3CCCCC3)n2)c1,-12,2.37
COc1ccc2c(CN3CCOC[C@@H](CN(C)C)C3)cn(C)c2c1,-2,0.27
Cc1csc(C2(NC(=O)Nc3ccnn3[C@@H](C)CC(C)C)CCC2)n1,-6,0.72
CCC[C@H](C)N(C)C(=O)CCN(Cc1ccccc1)C(C)=O,-7,0.91
CCN(CCn1cccn1)S(=O)(=O)c1ccc(OCC(N)=O)cc1,-2,0.31
CN(C)C(=O)c1ccc(OC2CCOCC2)nc1,-3,0.48
Cc1nc([C@@H]2CCC[C@H](N)C2)n(C2Cc3ccccc3C2)n1,6,-0.85
CCN(CCn1cccn1)C[C@]1(c2ccc(F)cc2)CCOC1,-5,0.69
Cn1nnc(C(=O)NC2CC[C@H]3CN(Cc4ccccc4)C[C@H]3C2)n1 (stereo partly specified),-5,0.86
CCOc1cc(C#N)ccc1OCC(=O)Nc1cc(C2CCCC2)nn1-c1ccccc1,-3,0.43
Cc1ccc(C(=O)N2CC[C@@H]3CN(Cc4ccccc4)[C@@H]3C2)cc1,-10,1.2
Cc1cc(C(=O)N2CC(F)(F)C[C@H]2COc2cccnc2)n(C)n1,-4,0.65

# Source: ChEMBL document CHEMBL4888484, “Replenishing the malaria drug discovery pipeline: Screening and hit evaluation of the MMV Hit Generation Library 1 (HGL1) against asexual blood stage Plasmodium falciparum ,using a nano luciferase reporter read-out” (2022)
